Source: the supplement of paper PMC3334620
In all, about 33,000 sequences were measured (“E-score (-0.5 to 0.5)”: median about -0.021, highest 2% from about 0.32 on). This is one part of the list.

These sequences were tested against T1, Zap1 (UniProt P47043) (assay: PBM E-score (8-mer binding enrichment) (E-score (-0.5 to 0.5)); higher = stronger / more preferred TF binding; most listed sequences are background and not binding sites). Conditions: protein concentration: 200 nM; construct: GST-full length.
T1 sequence: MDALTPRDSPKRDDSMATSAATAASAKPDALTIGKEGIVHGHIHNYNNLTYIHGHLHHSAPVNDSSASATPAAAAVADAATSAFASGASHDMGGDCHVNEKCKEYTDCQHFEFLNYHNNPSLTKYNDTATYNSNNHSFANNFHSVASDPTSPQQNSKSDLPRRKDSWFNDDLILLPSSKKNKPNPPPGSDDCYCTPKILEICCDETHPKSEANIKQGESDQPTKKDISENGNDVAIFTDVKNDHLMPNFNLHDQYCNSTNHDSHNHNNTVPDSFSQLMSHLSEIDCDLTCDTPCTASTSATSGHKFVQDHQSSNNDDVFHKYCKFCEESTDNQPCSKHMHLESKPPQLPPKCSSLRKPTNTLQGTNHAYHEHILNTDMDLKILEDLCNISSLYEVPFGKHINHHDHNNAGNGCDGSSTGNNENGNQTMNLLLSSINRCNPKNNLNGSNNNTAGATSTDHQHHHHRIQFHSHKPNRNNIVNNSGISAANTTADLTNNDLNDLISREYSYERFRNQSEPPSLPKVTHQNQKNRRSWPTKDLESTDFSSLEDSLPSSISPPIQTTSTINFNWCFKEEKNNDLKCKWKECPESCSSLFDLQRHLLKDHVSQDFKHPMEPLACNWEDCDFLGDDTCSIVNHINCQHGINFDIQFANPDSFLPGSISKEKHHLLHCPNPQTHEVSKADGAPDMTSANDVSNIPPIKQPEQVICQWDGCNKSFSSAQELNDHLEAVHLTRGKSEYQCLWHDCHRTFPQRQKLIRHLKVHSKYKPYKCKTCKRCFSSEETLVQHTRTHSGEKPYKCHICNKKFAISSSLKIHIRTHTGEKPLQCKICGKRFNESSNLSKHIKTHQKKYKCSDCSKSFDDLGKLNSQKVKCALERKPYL
Protocol: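 Universal 'all 10-mer' protein binding microarrays (Agilent AMADID 015681) probed with GST-tagged S. cerevisiae TFs (full-length or DBD) made by in vitro transcription/translation (PURExpress), about 100-200 nM. Bound TF was detected with fluorescent anti-GST. Each ungapped 8-mer (which stands for itself and its reverse complement) is scored by the PBM enrichment score (E-score), a modified Wilcoxon-Mann-Whitney statistic from -0.5 to +0.5, computed with the Universal PBM Analysis Suite. Scale: above 0.35 generally sequence-specific binding.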
For CTAAACGA, the “PBM E-score” value was 0.0728.
In the case of CTTCTCGA, the “PBM E-score” value was -0.17.
For GGAAAGGA, the “PBM E-score” value was -0.0553.
AAGTGTGT was tested, and the “PBM E-score” value was 0.0267.
With GACCTAAC the “PBM E-score” value was 0.171.
In the case of AACGCCGG, the “PBM E-score” value was -0.109.
For CGTCTATA, the “PBM E-score” value was -0.122.
In the case of ACAGTAGT, the “PBM E-score” value was -0.159.
With GCGTAGAA the “PBM E-score” value was -0.195.
CACGACCC was tested, and the “PBM E-score” value was 0.206.
With ACTGTGTG the “PBM E-score” value was -0.0788.
With AACCTAGT the “PBM E-score” value was 0.161.
With ATTTTTAC the “PBM E-score” value was 0.016.
AGCTGCTG was tested, and the “PBM E-score” value was -0.194.
For ATGTTGTA, the “PBM E-score” value was 0.0198.
With CCGTCAGA the “PBM E-score” value was -0.102.
CCGCCGGC was tested, and the “PBM E-score” value was -0.00276.
ACTGAAAC was tested, and the “PBM E-score” value was 0.18.
With CTTTCCCC the “PBM E-score” value was -0.0608.
ACACAAAA was tested, and the “PBM E-score” value was 0.259.
With GCAACGTA the “PBM E-score” value was -0.0702.
In the case of GAGGAGTA, the “PBM E-score” value was -0.119.
CACACTTA was tested, and the “PBM E-score” value was -0.0809.
AGGCCTGA was tested, and the “PBM E-score” value was -0.151.
In the case of AGTGGCTG, the “PBM E-score” value was -0.101.
With CTATGTAA the “PBM E-score” value was 0.0968.
ATCGAATG was tested, and the “PBM E-score” value was -0.106.
For CGATCCAA, the “PBM E-score” value was -0.00332.
With AGCACTAT the “PBM E-score” value was -0.174.
With CTAAAAGA the “PBM E-score” value was 0.0186.
With AATAACGC the “PBM E-score” value was -0.0593.
With GCTTATCA the “PBM E-score” value was -0.0135.
In the case of TATATTGA, the “PBM E-score” value was 0.155.
ACAACATC was tested, and the “PBM E-score” value was -0.112.
ATCCGATC was tested, and the “PBM E-score” value was 0.0622.
CCCTTAAG was tested, and the “PBM E-score” value was 0.335.
With AGTCTATC the “PBM E-score” value was -0.348.
In the case of CTCGTGGC, the “PBM E-score” value was 0.0416.
In the case of CCCCGATA, the “PBM E-score” value was 0.0649.
In the case of GGTGAACC, the “PBM E-score” value was 0.0647.
With AACGGCCT the “PBM E-score” value was -0.0819.
For CCTAAGTA, the “PBM E-score” value was 0.214.
With CCGGTGTA the “PBM E-score” value was -0.0602.
AGTTAGAA was tested, and the “PBM E-score” value was 0.0791.
In the case of GGCTAACA, the “PBM E-score” value was -0.0475.
With ACTCGTAC the “PBM E-score” value was -0.21.
In the case of ATACCGAC, the “PBM E-score” value was -0.111.
In the case of ATTAACTA, the “PBM E-score” value was 0.0476.
CCAACTGG was tested, and the “PBM E-score” value was 0.0919.
ATATACCA was tested, and the “PBM E-score” value was 0.078.
With ATTAATGG the “PBM E-score” value was 0.146.
For GCTGAGTA, the “PBM E-score” value was -0.0287.
In the case of CCATATAG, the “PBM E-score” value was -0.0702.
With TAGGTGGA the “PBM E-score” value was -0.173.
GGATCATA was tested, and the “PBM E-score” value was -0.091.
With AAATATAC the “PBM E-score” value was 0.163.
In the case of CGTATGGA, the “PBM E-score” value was 0.05.
With CGACCAAA the “PBM E-score” value was 0.224.
With GTTCTCCA the “PBM E-score” value was -0.0516.
With AACTAGTT the “PBM E-score” value was 0.0252.
For AGAAGCTC, the “PBM E-score” value was -0.108.
CATAAGAG was tested, and the “PBM E-score” value was -0.0365.
AACGGTGG was tested, and the “PBM E-score” value was 0.0901.
For CATGCAGC, the “PBM E-score” value was -0.102.
AGAGAGGG was tested, and the “PBM E-score” value was -0.274.
In the case of GGAGTGCC, the “PBM E-score” value was -0.0802.
In the case of AAAGCTGC, the “PBM E-score” value was -0.0979.
With ACCGGGCA the “PBM E-score” value was -0.00288.
In the case of ATGCCTCG, the “PBM E-score” value was -0.115.
In the case of CCAAGATC, the “PBM E-score” value was -0.0112.
In the case of ATCTTCCC, the “PBM E-score” value was -0.0623.
In the case of AAATGTCT, the “PBM E-score” value was -0.207.
With AATGAGCC the “PBM E-score” value was -0.226.
GTCAATCA was tested, and the “PBM E-score” value was -0.0255.
In the case of CGCGTCCG, the “PBM E-score” value was -0.112.
For ACGATGAC, the “PBM E-score” value was -0.0774.
For GCCCGACA, the “PBM E-score” value was -0.00925.
AACCGATG was tested, and the “PBM E-score” value was 0.182.
In the case of ACTGCACG, the “PBM E-score” value was 0.0724.
With CGCTCGTC the “PBM E-score” value was -0.285.
In the case of ACGTTTCC, the “PBM E-score” value was -0.157.
In the case of CGTCCGCA, the “PBM E-score” value was -0.158.
With GATGATTA the “PBM E-score” value was -0.104.
For CGCTCCAA, the “PBM E-score” value was -0.192.
With GTTCTAAA the “PBM E-score” value was 0.211.
In the case of CGGAGTTA, the “PBM E-score” value was 0.0308.
For CCCCGAGA, the “PBM E-score” value was 0.0397.
With GCCTACAA the “PBM E-score” value was 0.0857.
For AACACTTG, the “PBM E-score” value was -0.0457.
For TCGAGGAA, the “PBM E-score” value was -0.0701.
For AAACCGTC, the “PBM E-score” value was 0.0956.
For ACGTAAAC, the “PBM E-score” value was -0.00614.
TACTTCGA was tested, and the “PBM E-score” value was 0.0268.
GGGCTAGA was tested, and the “PBM E-score” value was -0.153.
